In the supplement of paper PMC8728848:
Some of the results follow.

What was measured:
Experiment in all cases: glycan array binding signal (z-score within array); higher = stronger binding
Conditions in all cases: glycan notation: IUPAC condensed, linker removed
[1] = biological target: Fuc(a1-2)[GalNAc(a1-3)]Gal(b1-3)GalNAc(b1-3)Gal(a1-4)Gal(b1-4)Glc
Outline: (§1)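 The binding signal is a Z-score computed within each array. Data were drawn from 3228 arrays in the Consortium for Functional Glycomics database, restricted to those with a known protein sequence. Scores were averaged over arrays of the same protein sequence at different concentrations or buffers, and over linkers, and negative values can be taken as non-binding.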

[2] = biological target: Fuc(a1-2)[GalNAc(a1-3)]Gal(b1-3)GlcNAc
Outline: as §1

[3] = biological target: Fuc(a1-2)[GalNAc(a1-3)]Gal(b1-3)GlcNAc(b1-2)Man(a1-3)[Fuc(a1-2)[GalNAc(a1-3)]Gal(b1-3)GlcNAc(b1-2)Man(a1-6)]Man(b1-4)GlcNAc(b1-4)GlcNAc
Outline: as §1

[4] = biological target: Fuc(a1-2)[GalNAc(a1-3)]Gal(b1-3)GlcNAc(b1-2)Man(a1-3)[Fuc(a1-2)[GalNAc(a1-3)]Gal(b1-3)GlcNAc(b1-2)Man(a1-6)]Man(b1-4)GlcNAc(b1-4)[Fuc(a1-6)]GlcNAc
Outline: as §1

[5] = biological target: Fuc(a1-2)[GalNAc(a1-3)]Gal(b1-3)GlcNAc(b1-3)GalNAc
Outline: as §1

[6] = biological target: Fuc(a1-2)[GalNAc(a1-3)]Gal(b1-3)GlcNAc(b1-6)GalNAc
Outline: as §1

[7] = biological target: Fuc(a1-2)[GalNAc(a1-3)]Gal(b1-4)Glc
Outline: as §1

[8] = biological target: Fuc(a1-2)[GalNAc(a1-3)]Gal(b1-4)GlcNAc
Outline: as §1

[9] = biological target: Fuc(a1-2)[GalNAc(a1-3)]Gal(b1-4)GlcNAc(b1-2)Man
Outline: as §1

[10] = biological target: Fuc(a1-2)[GalNAc(a1-3)]Gal(b1-4)GlcNAc(b1-2)Man(a1-3)[Fuc(a1-2)[GalNAc(a1-3)]Gal(b1-4)GlcNAc(b1-2)Man(a1-6)]Man(b1-4)GlcNAc(b1-4)GlcNAc
Outline: as §1

[11] = biological target: Fuc(a1-2)[GalNAc(a1-3)]Gal(b1-4)GlcNAc(b1-2)Man(a1-3)[Fuc(a1-2)[GalNAc(a1-3)]Gal(b1-4)GlcNAc(b1-2)Man(a1-6)]Man(b1-4)GlcNAc(b1-4)[Fuc(a1-6)]GlcNAc
Outline: as §1

[12] = biological target: Fuc(a1-2)[GalNAc(a1-3)]Gal(b1-4)GlcNAc(b1-3)Gal(b1-4)GlcNAc
Outline: as §1

[13] = biological target: Fuc(a1-2)[GalNAc(a1-3)]Gal(b1-4)GlcNAc(b1-3)Gal(b1-4)GlcNAc(b1-3)Gal(b1-4)GlcNAc
Outline: as §1

[14] = biological target: Fuc(a1-2)[GalNAc(a1-3)]Gal(b1-4)GlcNAc(b1-3)GalNAc
Outline: as §1

[15] = biological target: Fuc(a1-2)[GalNAc(a1-3)]Gal(b1-4)GlcNAc(b1-3)[Fuc(a1-2)[GalNAc(a1-3)]Gal(b1-4)GlcNAc(b1-6)]GalNAc
Outline: as §1

[16] = biological target: Fuc(a1-2)[GalNAc(a1-3)]Gal(b1-4)GlcNAc(b1-6)GalNAc
Outline: as §1

[17] = biological target: Fuc(a1-2)[GalNAc(a1-3)]Gal(b1-4)[Fuc(a1-3)]GlcNAc
Outline: as §1

[18] = biological target: Fuc(a1-2)[GalNAc(a1-3)]Gal(b1-4)[Fuc(a1-3)]GlcNAc(b1-3)GalNAc
Outline: as §1

[19] = biological target: Fuc(a1-2)[GalNAc(a1-4)]Gal(b1-4)GlcNAc
Outline: as §1

[20] = biological target: Fuc(a1-2)[GalNAc(b1-3)]Gal
Outline: as §1

Fuc(a1-3)GlcNAc = biological target: Fuc(a1-3)GlcNAc
Outline: as §1

[21] = biological target: Fuc(a1-3)[Gal(b1-4)]Glc6S
Outline: as §1

[22] = biological target: Fuc(a1-3)[Gal(b1-4)]GlcNAc
Outline: as §1

[23] = biological target: Fuc(a1-3)[Gal(b1-4)]GlcNAc(b1-2)Man
Outline: as §1

[24] = biological target: Fuc(a1-3)[Gal(b1-4)]GlcNAc(b1-2)Man(a1-3)[Fuc(a1-3)[Gal(b1-4)]GlcNAc(b1-2)Man(a1-6)]Man(b1-4)GlcNAc(b1-4)GlcNAc
Outline: as §1

[25] = biological target: Fuc(a1-3)[Gal(b1-4)]GlcNAc(b1-2)Man(a1-3)[Fuc(a1-3)[Gal(b1-4)]GlcNAc(b1-2)Man(a1-6)]Man(b1-4)GlcNAc(b1-4)[Fuc(a1-6)]GlcNAc
Outline: as §1

[26] = biological target: Fuc(a1-3)[Gal(b1-4)]GlcNAc(b1-3)Gal(b1-3)[Fuc(a1-4)]GlcNAc
Outline: as §1

[27] = biological target: Fuc(a1-3)[Gal(b1-4)]GlcNAc(b1-3)Gal(b1-4)[Fuc(a1-3)]GlcNAc
Outline: as §1

[28] = biological target: Fuc(a1-3)[Gal(b1-4)]GlcNAc(b1-3)Gal(b1-4)[Fuc(a1-3)]GlcNAc(b1-3)Gal(b1-4)[Fuc(a1-3)]GlcNAc
Outline: as §1

[29] = biological target: Fuc(a1-3)[Gal(b1-4)]GlcNAc(b1-3)GalNAc
Outline: as §1

[30] = biological target: Fuc(a1-3)[Gal(b1-4)]GlcNAc(b1-4)Gal(b1-4)[Fuc(a1-3)]GlcNAc
Outline: as §1

[31] = biological target: Fuc(a1-3)[Gal(b1-4)]GlcNAc(b1-4)Gal(b1-4)[Fuc(a1-3)]GlcNAc(b1-4)Gal(b1-4)[Fuc(a1-3)]GlcNAc
Outline: as §1

[32] = biological target: Fuc(a1-3)[Gal(b1-4)]GlcNAc(b1-6)GalNAc
Outline: as §1

[33] = biological target: Fuc(a1-3)[Gal(b1-4)]GlcNAc(b1-6)[Gal(b1-3)GlcNAc(b1-3)]Gal(b1-4)Glc
Outline: as §1

[34] = biological target: Fuc(a1-3)[Gal(b1-4)]GlcNAc6S
Outline: as §1

[35] = biological target: Fuc(a1-3)[Gal3S(b1-4)]Glc
Outline: as §1

[36] = biological target: Fuc(a1-3)[Gal3S(b1-4)]GlcNAc
Outline: as §1

[37] = biological target: Fuc(a1-3)[Gal3S(b1-4)]GlcNAc6S
Outline: as §1

[38] = biological target: Fuc(a1-3)[GalNAc(b1-4)]GlcNAc
Outline: as §1

[39] = biological target: Fuc(a1-3)[GalNAc(b1-4)]GlcNAc6S
Outline: as §1

Fuc(a1-4)GlcNAc = biological target: Fuc(a1-4)GlcNAc
Outline: as §1

Fuc(b1-3)GlcNAc = biological target: Fuc(b1-3)GlcNAc
Outline: as §1

Gal(a1-2)Gal = biological target: Gal(a1-2)Gal
Outline: as §1

Gal(a1-3)Gal = biological target: Gal(a1-3)Gal
Outline: as §1

Gal(a1-3)Gal(b1-3)GlcNAc = biological target: Gal(a1-3)Gal(b1-3)GlcNAc
Outline: as §1

B1: Gal 1 (Mus musculus), P16045 (protein)
chain: MACGLVASNLNLKPGECLKVRGEVASDAKSFVLNLGKDSNNLCLHFNPRFNAHGDANTIVCNTKEDGTWGTEHREPAFPFQPGSITEVCITFDQADLTIKLPDGHEFKFPNRLNMEAINYMAADGDFKIKCVAFE
glycan array binding signal (z-score) [1]: -0.473
glycan array binding signal (z-score) [2]: -0.394
glycan array binding signal (z-score) [3]: -0.212
glycan array binding signal (z-score) [4]: -0.145
glycan array binding signal (z-score) [5]: -0.258
glycan array binding signal (z-score) [6]: -0.368
glycan array binding signal (z-score) [7]: -0.279
glycan array binding signal (z-score) [8]: -0.252
glycan array binding signal (z-score) [9]: -0.322
glycan array binding signal (z-score) [10]: -0.059
glycan array binding signal (z-score) [11]: -0.13
glycan array binding signal (z-score) [12]: -0.342
glycan array binding signal (z-score) [13]: -0.032
glycan array binding signal (z-score) [14]: -0.243
glycan array binding signal (z-score) [15]: -0.292
glycan array binding signal (z-score) [16]: -0.371
glycan array binding signal (z-score) [17]: -0.209
glycan array binding signal (z-score) [18]: -0.272
glycan array binding signal (z-score) [19]: -0.372
glycan array binding signal (z-score) [20]: -0.391
glycan array binding signal (z-score) (Fuc(a1-3)GlcNAc): -0.329
glycan array binding signal (z-score) [21]: -0.237
glycan array binding signal (z-score) [22]: -0.28
glycan array binding signal (z-score) [23]: -0.075
glycan array binding signal (z-score) [24]: -0.134
glycan array binding signal (z-score) [25]: -0.334
glycan array binding signal (z-score) [26]: -0.064
glycan array binding signal (z-score) [27]: -0.236
glycan array binding signal (z-score) [28]: -0.445
glycan array binding signal (z-score) [29]: -0.264
glycan array binding signal (z-score) [30]: -0.186
glycan array binding signal (z-score) [31]: -0.42
glycan array binding signal (z-score) [32]: -0.072
glycan array binding signal (z-score) [33]: -0.15
glycan array binding signal (z-score) [34]: -0.314
glycan array binding signal (z-score) [35]: 1.23
glycan array binding signal (z-score) [36]: -0.226
glycan array binding signal (z-score) [37]: -0.27
glycan array binding signal (z-score) [38]: -0.277
glycan array binding signal (z-score) [39]: -0.325
glycan array binding signal (z-score) (Fuc(a1-4)GlcNAc): -0.353
glycan array binding signal (z-score) (Fuc(b1-3)GlcNAc): -0.397
glycan array binding signal (z-score) (Gal(a1-2)Gal): -0.218
glycan array binding signal (z-score) (Gal(a1-3)Gal): -0.382
glycan array binding signal (z-score) (Gal(a1-3)Gal(b1-3)GlcNAc): 0.737
